In patent publication US20260176259A1, “NITROGEN-CONTAINING HETEROCYCLIC COMPOUND” (Kyoto University, priority 2022, published 2026):
The name of at least one read-out is uncertain.

These molecules were tested on GLA splicing reporter vector (GLA splicing: exon 4+exon 5 vs exon 4+pseudoexon+exon 5) (assay: GLA splicing reporter assay (GFP/RFP fluorescence ratio) in transfected HeLa cells). Conditions: 10 μM evaluation compound, 0.1% DMSO, HeLa cell line, 16 hours after addition; GFP signal/RFP signal ratio, with ratio of 10 μM positive control 2-chloro-6-(2-furylmethyl)purine as 1.
Assay type: cell-based
`O=S1(=O)CC(CCOc2cccc3c(NCc4ccco4)cc(Cl)nc23)C1` [Example 143] showed a GLA_Signal_REC_10_2 of 2.14. For `FC1(F)CC1COc1cccc2c(NCc3cccs3)nc(Cl)nc12` (stereo not shown) [Example 144, 2-Chloro-8-[(2,2-difluorocyclopropyl)methoxy]-N-(thiophen-2-ylmethyl)quinazolin-4-amine], the GLA_Signal_REC_10_2 was 2.49. Work on `Clc1nc(NCc2cccs2)c2cccc(OCC3COCCO3)c2n1` (stereo not shown) [Example 145, 2-Chloro-8-(1,4-dioxan-2-ylmethoxy)-N-(thiophen-2-ylmethyl)quinazolin-4-amine] yielded a GLA_Signal_REC_10_2 of 5.17. Work on `FC1(F)CC1COc1cccc2c(NCc3ccsc3)nc(Cl)nc12` (stereo not shown) [Example 146, 2-Chloro-8-[(2,2-difluorocyclopropyl)methoxy]-N-(thiophen-3-ylmethyl)quinazolin-4-amine] yielded a GLA_Signal_REC_10_2 of 2.25. `Clc1nc(NCc2ccsc2)c2cccc(OCC3COCCO3)c2n1` (stereo not shown) [Example 147, 2-Chloro-8-(1,4-dioxan-2-ylmethoxy)-N-(thiophen-3-ylmethyl)quinazolin-4-amine] gave a GLA_Signal_REC_10_2 of 2.57. `O=C1NCC(COc2cccc3c(NCc4cc(F)co4)nc(Cl)nc23)O1` (stereo not shown) [Example 148, 5-{[(2-Chloro-4-{[(4-fluorofuran-2-yl)methyl]amino}quinazolin-8-yl)oxy]methyl}-1,3-oxazolidin-2-one] gave a GLA_Signal_REC_10_2 of 2.05. `FC1(F)CC1COc1cccc2c(NCc3ccns3)nc(Cl)nc12` (stereo not shown) [Example 149, 2-Chloro-8-[(2,2-difluorocyclopropyl)methoxy]-N-(1,2-thiazol-5-ylmethyl)quinazolin-4-amine] showed a GLA_Signal_REC_10_2 of 1.55. For `FC1(F)CC1COc1cccc2c(NCc3cocn3)nc(Cl)nc12` (stereo not shown) [Example 150, 2-Chloro-8-[(2,2-difluorocyclopropyl)methoxy]-N-(1,3-oxazol-4-ylmethyl)quinazolin-4-amine], the GLA_Signal_REC_10_2 was 0.9. `Clc1nc(NCc2ccon2)c2cccc(OCC3COCCO3)c2n1` (stereo not shown) [Example 151, 2-Chloro-8-(1,4-dioxan-2-ylmethoxy)-N-(1,2-oxazol-3-ylmethyl)quinazolin-4-amine] gave a GLA_Signal_REC_10_2 of 1. `O=C1NCC(COc2cccc3c(NCc4ncco4)nc(Cl)nc23)O1` (stereo not shown) [Example 152, 5-[({2-Chloro-4-[(1,3-oxazol-2-ylmethyl)amino]quinazolin-8-yl}oxy)methyl]-1,3-oxazolidin-2-one] was tested, and the GLA_Signal_REC_10_2 was 2.33. In the case of `Clc1nc(NCc2ncco2)c2cccc(OCC3COCCO3)c2n1` (stereo not shown) [Example 153, 2-Chloro-8-(1,4-dioxan-2-ylmethoxy)-N-(1,3-oxazol-2-ylmethyl)quinazolin-4-amine], the GLA_Signal_REC_10_2 is reported as 1.35. `O=C1NCC(COc2cccc3c(NCc4cccs4)nc(Cl)nc23)O1` (stereo not shown) [Example 154] gave a GLA_Signal_REC_10_2 of 4.65. With `O=C1NCC(COc2cccc3c(NCc4ccsc4)nc(Cl)nc23)O1` (stereo not shown) [Example 155] the GLA_Signal_REC_10_2 was 4.39. `FC1(F)CC1COc1cccc2c(NCc3nccs3)nc(Cl)nc12` (stereo not shown) [Example 156] showed a GLA_Signal_REC_10_2 of 3.07. For `Clc1nc(NCc2nccs2)c2cccc(OCC3COCCO3)c2n1` (stereo not shown) [Example 157], the GLA_Signal_REC_10_2 was 2.56. `O=C1NCC(COc2cccc3c(NCc4nccs4)nc(Cl)nc23)O1` (stereo not shown) [Example 158] gave a GLA_Signal_REC_10_2 of 2.69. For `FC1(F)CC1COc1cccc2c(NCc3ncco3)nc(Cl)nc12` (stereo not shown) [Example 159], the GLA_Signal_REC_10_2 was 1.85. `FC1(F)CC1COc1cccc2c(NCc3ccncc3)nc(Cl)nc12` (stereo not shown) [Example 160] showed a GLA_Signal_REC_10_2 of 1.62. `O=C1NCC(COc2cccc3c(NCc4ccncc4)nc(Cl)nc23)O1` (stereo not shown) [Example 161] gave a GLA_Signal_REC_10_2 of 3.22. Molecule `O=C1NCC(COc2cccc3c(NCc4ccncn4)nc(Cl)nc23)O1` (stereo not shown) [Example 162] has a GLA_Signal_REC_10_2 of 3.13. For `O=C1NCC(COc2cccc3c(NCc4ccccn4)nc(Cl)nc23)O1` (stereo not shown) [Example 163], the GLA_Signal_REC_10_2 was 1.63. With `O=C1NCC(COc2cccc3c(NCc4ccncc4F)nc(Cl)nc23)O1` (stereo not shown) [Example 164] the GLA_Signal_REC_10_2 was 1.24. `O=C1NCC(COc2cccc3c(NCc4cccc(F)c4)nc(Cl)nc23)O1` (stereo not shown) [Example 166] showed a GLA_Signal_REC_10_2 of 1.22. `Clc1nc(NCc2ncon2)c2cccc(OCC3COCCO3)c2n1` (stereo not shown) [Example 167] was tested, and the GLA_Signal_REC_10_2 was 1.16. For `O=C1NCC(COc2cccc3c(NCc4ccns4)nc(Cl)nc23)O1` (stereo not shown) [Example 168], the GLA_Signal_REC_10_2 was 1.07. For `O=C1NCC(COc2cccc3c(NCc4ccc(F)cc4)nc(Cl)nc23)O1` (stereo not shown) [Example 169], the GLA_Signal_REC_10_2 was 1.09. `CN1CC(COc2nccc3c(NCc4ccco4)cc(Cl)nc23)OC1=O` (stereo not shown) [Example 170, 5-[({2-Chloro-4-[(furan-2-ylmethyl)amino]-1,7-naphthyridin-8-yl}oxy)methyl]-3-methyl-1,3-oxazolidin-2-one] gave a GLA_Signal_REC_10_2 of 3.14. `CN1C[C@@H](COc2nccc3c(NCc4ccco4)cc(Cl)nc23)OC1=O` [Example 171, (5S)-5-[({2-Chloro-4-[(furan-2-ylmethyl)amino]-1,7-naphthyridin-8-yl}oxy)methyl]-3-methyl-1,3-oxazolidin-2-one] showed a GLA_Signal_REC_10_2 of 3.38. For `CN1C[C@H](COc2nccc3c(NCc4ccco4)cc(Cl)nc23)OC1=O` [Example 172, (5R)-5-[({2-Chloro-4-[(furan-2-ylmethyl)amino]-1,7-naphthyridin-8-yl}oxy)methyl]-3-methyl-1,3-oxazolidin-2-one], the GLA_Signal_REC_10_2 was 3.96. `O=C1NCC(COc2nccc3c(NCc4ccccc4)cc(Cl)nc23)O1` (stereo not shown) [Example 173, 5-({[4-(Benzylamino)-2-chloro-1,7-naphthyridin-8-yl]oxy}methyl)-1,3-oxazolidin-2-one] gave a GLA_Signal_REC_10_2 of 6.96. With `O=C1OC(COc2nccc3c(NCc4ccco4)cc(Cl)nc23)CN1CCF` (stereo not shown) [Example 174, 5-[({2-Chloro-4-[(furan-2-ylmethyl)amino]-1,7-naphthyridin-8-yl}oxy)methyl]-3-(2-fluoroethyl)-1,3-oxazolidin-2-one] the GLA_Signal_REC_10_2 was 3.44. Molecule `O=C1OC(COc2nccc3c(NCc4ccco4)cc(Cl)nc23)CN1CCO` (stereo not shown) [Example 175, 5-[({2-Chloro-4-[(furan-2-ylmethyl)amino]-1,7-naphthyridin-8-yl}oxy)methyl]-3-(2-hydroxyethyl)-1,3-oxazolidin-2-one] has a GLA_Signal_REC_10_2 of 4.39. `O=C1OC(COc2nccc3c(NCc4ccccc4)cc(Cl)nc23)CN1CCF` (stereo not shown) [Example 176, 5-({[4-(Benzylamino)-2-chloro-1,7-naphthyridin-8-yl]oxy}methyl)-3-(2-fluoroethyl)-1,3-oxazolidin-2-one] showed a GLA_Signal_REC_10_2 of 3.16. Work on `CN1CC(COc2nccc3c(NCc4ccccc4)cc(Cl)nc23)OC1=O` (stereo not shown) [Example 177, 5-({[4-(Benzylamino)-2-chloro-1,7-naphthyridin-8-yl]oxy}methyl)-3-methyl-1,3-oxazolidin-2-one] yielded a GLA_Signal_REC_10_2 of 6.05. `O=C1OC(COc2nccc3c(NCc4ccccc4)cc(Cl)nc23)CN1CCO` (stereo not shown) [Example 178, 5-({[4-(Benzylamino)-2-chloro-1,7-naphthyridin-8-yl]oxy}methyl)-3-(2-hydroxyethyl)-1,3-oxazolidin-2-one] showed a GLA_Signal_REC_10_2 of 5.21. Molecule `Clc1nc(NCc2ccco2)c2nccc(OCC3COCCO3)c2n1` (stereo not shown) [Example 179, 2-Chloro-8-(1,4-dioxan-2-ylmethoxy)-N-(furan-2-ylmethyl)pyrido[3,2-d]pyrimidin-4-amine] has a GLA_Signal_REC_10_2 of 1.7. For `Clc1nc(NCc2ccco2)c2ccnc(OCC3COCCO3)c2n1` (stereo not shown) [Example 180, 2-Chloro-8-(1,4-dioxan-2-ylmethoxy)-N-(furan-2-ylmethyl)pyrido[3,4-d]pyrimidin-4-amine], the GLA_Signal_REC_10_2 was 2.53. `CN1CC(COc2nccc3c(NCc4ccco4)nc(Cl)nc23)OC1=O` (stereo not shown) [Example 181, 5-[({2-Chloro-4-[(furan-2-ylmethyl)amino]pyrido[3,4-d]pyrimidin-8-yl}oxy)methyl]-3-methyl-1,3-oxazolidin-2-one] gave a GLA_Signal_REC_10_2 of 7.43. `CN1CC(COc2nccc3c(NCc4ccccc4)nc(Cl)nc23)OC1=O` (stereo not shown) [Example 182, 5-({[4-(Benzylamino)-2-chloropyrido[3,4-d]pyrimidin-8-yl]oxy}methyl)-3-methyl-1,3-oxazolidin-2-one] showed a GLA_Signal_REC_10_2 of 3.84. Work on `CN1CC(COc2cncc3c(NCc4ccco4)nc(Cl)nc23)OC1=O` (stereo not shown) [Example 183, 5-[({2-Chloro-4-[(furan-2-ylmethyl)amino]pyrido[4,3-d]pyrimidin-8-yl}oxy)methyl]-3-methyl-1,3-oxazolidin-2-one] yielded a GLA_Signal_REC_10_2 of 1.57. Molecule `CN1CC(COc2cncc3c(NCc4ccccc4)nc(Cl)nc23)OC1=O` (stereo not shown) [Example 184, 5-({[4-(Benzylamino)-2-chloropyrido[4,3-d]pyrimidin-8-yl]oxy}methyl)-3-methyl-1,3-oxazolidin-2-one] has a GLA_Signal_REC_10_2 of 1.93. For `O=C1NCC(COc2cncc3c(NCc4ccccc4)cc(Cl)nc23)O1` (stereo not shown) [Example 185, 5-({[4-(Benzylamino)-2-chloro-1,6-naphthyridin-8-yl]oxy}methyl)-1,3-oxazolidin-2-one], the GLA_Signal_REC_10_2 was 2.25. Molecule `CN1CC(COc2cncc3c(NCc4ccccc4)cc(Cl)nc23)OC1=O` (stereo not shown) [Example 186, 5-({[4-(Benzylamino)-2-chloro-1,6-naphthyridin-8-yl]oxy}methyl)-3-methyl-1,3-oxazolidin-2-one] has a GLA_Signal_REC_10_2 of 2.16. `CCN1CC(COc2cccc3c(NCc4ccco4)nc(Cl)nc23)OC1=O` (stereo not shown) [Example 187, 5-[({2-Chloro-4-[(furan-2-ylmethyl)amino]quinazolin-8-yl}oxy)methyl]-3-ethyl-1,3-oxazolidin-2-one] was tested, and the GLA_Signal_REC_10_2 was 2.68. Molecule `CC(C)N1CC(COc2cccc3c(NCc4ccco4)nc(Cl)nc23)OC1=O` (stereo not shown) [Example 188, 5-[({2-Chloro-4-[(furan-2-ylmethyl)amino]quinazolin-8-yl}oxy)methyl]-3-(propan-2-yl)-1,3-oxazolidin-2-one] has a GLA_Signal_REC_10_2 of 4.04. `O=C1OC(COc2cccc3c(NCc4ccco4)nc(Cl)nc23)CN1CCF` (stereo not shown) [Example 189, 5-[({2-Chloro-4-[(furan-2-ylmethyl)amino]quinazolin-8-yl}oxy)methyl]-3-(2-fluoroethyl)-1,3-oxazolidin-2-one] showed a GLA_Signal_REC_10_2 of 4.97.
